{"source": "paper PMC7819943", "about": "“Rice protein-binding microarrays: a tool to detect cis-acting elements near promoter regions in rice”", "note": "The other results are listed elsewhere or left out."}
{"biological_target": "T1, OsWOX13 (Oryza sativa, UniProt Q5QMM3 1-267)", "T1 sequence": "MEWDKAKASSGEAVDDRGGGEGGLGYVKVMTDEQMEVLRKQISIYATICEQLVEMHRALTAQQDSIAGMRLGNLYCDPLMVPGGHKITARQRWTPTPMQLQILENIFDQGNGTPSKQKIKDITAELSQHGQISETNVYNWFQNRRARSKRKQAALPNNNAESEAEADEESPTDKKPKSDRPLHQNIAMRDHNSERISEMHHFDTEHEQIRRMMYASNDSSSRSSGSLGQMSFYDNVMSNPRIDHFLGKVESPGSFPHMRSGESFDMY", "assay": "protein-binding microarray (RPBM); PBS, 2% BSA, 51.3 ng/ul salmon testes DNA, 50 uM zinc acetate, 200 nM TF, 25 C, 1 h; high values mean tight binding", "conditions": "protein: recombinant; tags: N-terminal polyhistidine and DsRed monomer fusion (pET32a); label: CyDye5-dUTP incorporated in the synthesized complementary strand; 3' TTTTT single-stranded linker to array surface; dsDNA, one strand shown", "how_it_was_run": "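Polyhistidine-tagged DsRed fusions of transcription factors, joined at the N-terminus, were expressed in E. coli BL21-CodonPlus and isolated on Ni–NTA. They were incubated at 200 nM for 1 h at 25 °C on a custom Agilent array, double-stranded and BSA-blocked, in PBS with 2% BSA, salmon testes DNA and 50 µM zinc acetate. The binding signal is per-feature fluorescence intensity (arbitrary units) read on an Axon 4000B scanner after washing.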"}
{"sequence": "TGTGATAATTTAGTTACCAAACATACAGTTTTGTGACAATCGGAGTCACCTAGTGCAG", "binding signal": "8060 fluorescence intensity (a.u.)"}
{"sequence": "TCTTAAGATTTTAATTAAATTAAATTTGGCCTAACCTATTCGGAGTCACCTAGTGCAG", "binding signal": "19700 fluorescence intensity (a.u.)"}
{"sequence": "GACAGATTAATTAAAGAATCATCATTACTGCGATGCGACCCGGAGTCACCTAGTGCAG", "binding signal": "16600 fluorescence intensity (a.u.)"}
{"sequence": "GTAATGAATTGATGGATGATGTGTCTGATTATTGGCACTGCGGAGTCACCTAGTGCAG", "binding signal": "47600 fluorescence intensity (a.u.)"}
{"sequence": "AAGATAATGATGTAGACACGCAATCTGCGCGGGCCCACCACGGAGTCACCTAGTGCAG", "binding signal": "6040 fluorescence intensity (a.u.)"}
{"sequence": "GGTAATGATTTAACACCACCTAATTTATTTTGAACAAGCTCGGAGTCACCTAGTGCAG", "binding signal": "20500 fluorescence intensity (a.u.)"}
{"sequence": "CTATGATTGGCAAATTTCCTCATGACATTAGAGACTAATACGGAGTCACCTAGTGCAG", "binding signal": "45700 fluorescence intensity (a.u.)"}
{"sequence": "GCGTCACGCAGACTTTGATGATTGATGCATCATGCATCACCGGAGTCACCTAGTGCAG", "binding signal": "16300 fluorescence intensity (a.u.)"}
{"sequence": "AACGTTTTAATTAAGCTTTCGGTTTTGTCCACTACCCCACCGGAGTCACCTAGTGCAG", "binding signal": "5150 fluorescence intensity (a.u.)"}
{"sequence": "CCTTAATCACACCATTGTAATGATGGCAACGACAAGGCCACGGAGTCACCTAGTGCAG", "binding signal": "15400 fluorescence intensity (a.u.)"}
{"sequence": "CATAATAGATTTATGTGTAATATATCACTTCATAAACATGCGGAGTCACCTAGTGCAG", "binding signal": "36600 fluorescence intensity (a.u.)"}
{"sequence": "GGAGGGAGTAGAATAATGATTGATTTAAGTTAATACTAGCCGGAGTCACCTAGTGCAG", "binding signal": "23500 fluorescence intensity (a.u.)"}
{"sequence": "GTAATTGCTAAAGTTTATCTCTAATATTTCTCGACGAGATCGGAGTCACCTAGTGCAG", "binding signal": "5280 fluorescence intensity (a.u.)"}
{"sequence": "GTATAAATTGATTATTTTATTGAACCGATGGTTGAAGTGACGGAGTCACCTAGTGCAG", "binding signal": "35400 fluorescence intensity (a.u.)"}
{"sequence": "GGTAATTGATTATGCACCTGATCTAGATACATGTACAGCTCGGAGTCACCTAGTGCAG", "binding signal": "61800 fluorescence intensity (a.u.)"}
{"sequence": "ATGTATTTAATTATAGATTTAATAAAATTAATCTAGTGTTCGGAGTCACCTAGTGCAG", "binding signal": "17500 fluorescence intensity (a.u.)"}
{"sequence": "ATAAAGATAGATATATAGATAGATATAGATAGGTAGATAGCGGAGTCACCTAGTGCAG", "binding signal": "12700 fluorescence intensity (a.u.)"}
{"sequence": "TCATTAATTATCACTCTTCATCCGCCCCTACGTATGAAACCGGAGTCACCTAGTGCAG", "binding signal": "23700 fluorescence intensity (a.u.)"}
{"sequence": "GGAAGAAATTAGTGCTCTTCAATTAGAAGTCGACAAGGCACGGAGTCACCTAGTGCAG", "binding signal": "4510 fluorescence intensity (a.u.)"}
{"sequence": "GATAACTGGATATTTACAACAAAATAACTTATGAGGTGAACGGAGTCACCTAGTGCAG", "binding signal": "13100 fluorescence intensity (a.u.)"}
{"sequence": "CCAGTCAATTAGTCAAACCCCATCCACCTCTCCTGGCTCTCGGAGTCACCTAGTGCAG", "binding signal": "25700 fluorescence intensity (a.u.)"}
{"sequence": "CTAACATGATCAAATAATCACTCGATTCAATGAGTTACCGCGGAGTCACCTAGTGCAG", "binding signal": "8880 fluorescence intensity (a.u.)"}
{"sequence": "TGACGAGAGATTCAAATGTAAAAGTTAACCTAATGAAAACCGGAGTCACCTAGTGCAG", "binding signal": "6000 fluorescence intensity (a.u.)"}
{"sequence": "AGTAATTGATTGGCCGGATGCTACCGGTAGTTACTGACTACGGAGTCACCTAGTGCAG", "binding signal": "60500 fluorescence intensity (a.u.)"}
{"sequence": "CTTTTATGCGTAATTGCGCCATGATTTGACAATGTGTTGCCGGAGTCACCTAGTGCAG", "binding signal": "30400 fluorescence intensity (a.u.)"}
{"sequence": "TTAATTTATTCCATAGATTGTGTTTTATGATGTACTGTTGCGGAGTCACCTAGTGCAG", "binding signal": "24400 fluorescence intensity (a.u.)"}
{"sequence": "CTACCATCTGATTGGGCTGTGTTTGGGCTCAGGCATTGGCCGGAGTCACCTAGTGCAG", "binding signal": "19100 fluorescence intensity (a.u.)"}
{"sequence": "CCAAACAAAATTATAAGAAATCATATAATAATAACCAAGACGGAGTCACCTAGTGCAG", "binding signal": "4540 fluorescence intensity (a.u.)"}
{"sequence": "TAACTAAATGTACAAACAGACGAGTAATGACATGGAGGTTCGGAGTCACCTAGTGCAG", "binding signal": "5660 fluorescence intensity (a.u.)"}
{"sequence": "AAATTGATTTTGACAGACAATTCCTTAAGAGGGCCGCTTACGGAGTCACCTAGTGCAG", "binding signal": "41300 fluorescence intensity (a.u.)"}
{"sequence": "ATAATGAAATAATTATTGATCAACTATTTAAAGAGTTTATCGGAGTCACCTAGTGCAG", "binding signal": "22700 fluorescence intensity (a.u.)"}
{"sequence": "ACCTGACCTAATCCATCAATCAAGGAGCATGCTAAAAGGACGGAGTCACCTAGTGCAG", "binding signal": "25200 fluorescence intensity (a.u.)"}
{"sequence": "CATAAACATCAAATAAAATGAGCTAACATTAATACAGGTCCGGAGTCACCTAGTGCAG", "binding signal": "3210 fluorescence intensity (a.u.)"}
{"sequence": "TTACATAATCTTAATCTTCATCTATCATGGCCCCTCTCACCGGAGTCACCTAGTGCAG", "binding signal": "4160 fluorescence intensity (a.u.)"}
{"sequence": "ACTCCACACACTGATCAACACTAATCAGCATGTACATTTGCGGAGTCACCTAGTGCAG", "binding signal": "4090 fluorescence intensity (a.u.)"}
{"sequence": "TTTCACCGTCAATTCTCTCGTGTAAACTCCCAATCCCCTTCGGAGTCACCTAGTGCAG", "binding signal": "5490 fluorescence intensity (a.u.)"}
{"sequence": "GGAAGCAAATTAACTGAAGTTTTGCGGGATTCCTTCATTGCGGAGTCACCTAGTGCAG", "binding signal": "9480 fluorescence intensity (a.u.)"}
{"sequence": "CTGCTTAACATTTTAGATTACCACATAATGTTAACTCCAACGGAGTCACCTAGTGCAG", "binding signal": "10400 fluorescence intensity (a.u.)"}
{"sequence": "CGCAATTGGTACTTATGATCATATTTAGGTGCTTCAATGACGGAGTCACCTAGTGCAG", "binding signal": "6110 fluorescence intensity (a.u.)"}
{"sequence": "AAAATAAATTCATAGGTTAACTAAATATATTTATACTACTCGGAGTCACCTAGTGCAG", "binding signal": "4400 fluorescence intensity (a.u.)"}
{"sequence": "AGCAAATCAAGTGCAAATATGCAATGAGCAAATTACTGCGCGGAGTCACCTAGTGCAG", "binding signal": "4330 fluorescence intensity (a.u.)"}
{"sequence": "ATGCAAGCAATCACAATTCACAATAGATGTAACAATATCGCGGAGTCACCTAGTGCAG", "binding signal": "4430 fluorescence intensity (a.u.)"}
